Measured values published in PubChem BioAssay AID686978 (National Center for Advancing Translational Sciences (NCATS), 2013).
“And” between values parts separate entries of the source, which are not always exact repeats. Identical values can stand only once. Out of some 420,000 compounds screened, about 64,000 (15%) were called active. This list was built around the results that the source calls inconclusive (neither active nor inactive); the mix of calls is not that of the screen. The call rests on the fitted dose curve; in most records, active means well fitted inhibition curve with a large enough effect; inconclusive means small, poorly fitted or top-dose-only effect; inactive means flat fitted curve, though single readings scatter. Potencies of inconclusive entries are doubtful fits and often do not repeat.
Potency means the concentration at half of the fitted maximal effect; tags describe the fitted curve by direction and shape.

Test: qHTS for Inhibitors of human tyrosyl-DNA phosphodiesterase 1 (TDP1): qHTS in cells in absence of CPT; further: nearly all actives have a fitted effect of over 55% in size
Details: DT40 Tdp1-/- hTDP1 cells, no CPT, ATP luminescence, 48 h; series mostly up to 46.2 µM
How it was run: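 Compound effects on proliferation are scored in DT40 Tdp1-/-;hTDP1 cells in the absence of CPT. ATP levels (CellTiter-Glo luminescence) are recorded after a ≥48 hr, 37 °C incubation.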
With `CC(=O)c1ccc(NC(=O)N2CCN(c3cccc(Cl)c3)CC2)cc1` the Potency was active: 11.6 µM. In the case of `Cc1ccc(-n2ncc3c(SCc4ccccc4)ncnc32)cc1`, the Potency is reported as inconclusive: 20.6 µM [inhibitor, single point]. For `O=C(Nc1ccc2[nH]ccc2c1)c1ccccc1`, the Potency was inconclusive: 23.1 µM [inhibitor, single point]. In the case of `CCC(=O)N1CCc2cc(S(=O)(=O)N(C)c3ccc(OC)cc3OC)ccc21`, the Potency is reported as inconclusive: 9.2 µM [inhibitor, partial curve]. In the case of `Cc1cccc(NC(=O)c2nc[nH]c2C(=O)N2CCc3ccccc3C2)c1`, the Potency is reported as inconclusive: 29.1 µM [inhibitor, single point]. For `CCOC(=O)c1c(NC(=O)CC)sc(C(=O)NC2CCCC2)c1C`, the Potency was “inactive”. With `Cc1ccc(S(=O)(=O)N(C)Cc2ccc(C(=O)NN=C3C4CC5CC(C4)CC3C5)cc2)cc1` the Potency was “inactive”. With `Nc1nc2ccccc2[nH]1` the Potency was “inactive”. With `Nc1c(N(CCC2=CCCCC2)C(=O)COc2ccc([N+](=O)[O-])cc2)c(=O)[nH]c(=O)n1Cc1ccccc1` the Potency was inconclusive: 20.6 µM [inhibitor, single point]. With `O=C(c1oc2ccccc2c1N1CCCCC1)N1CCCCC1` the Potency was inconclusive: 29.1 µM [inhibitor, single point]. In the case of `COc1cccc(NC(=O)/C=C/c2ccccc2[N+](=O)[O-])c1`, the Potency is reported as inconclusive: 29.1 µM [inhibitor, single point]. For `CCOC(=O)c1sc2ncnc(N3CCN(CC)CC3)c2c1C`, the Potency was inconclusive: 16.4 µM [inhibitor, partial curve]. In the case of `O=C1NC(=S)S/C1=C\c1coc2ccccc2c1=O`, the Potency is reported as inconclusive: 23.1 µM [inhibitor, single point]. For `CN1C(=O)C2(SCC(=O)N2c2ccc(Cl)cc2)c2ccccc21` (stereo not drawn), the Potency was inconclusive: 29.1 µM [inhibitor, single point]. In the case of `COc1ccc(C(CC(=O)N2CCN(c3ccccc3)CC2)c2c(O)cc(OC)cc2OC)cc1` (stereo not drawn), the Potency is reported as inconclusive: 23.1 µM [inhibitor, single point]. In the case of `O=C(NCCc1ccccn1)C1CCN(S(=O)(=O)c2ccc(Cl)cc2)CC1`, the Potency is reported as “inactive”. For `C=C(c1ccc(OCCO)cc1)c1ccc(OCCO)cc1`, the Potency was inconclusive: 23.1 µM [inhibitor, partial curve, poor fit]. In the case of `Cc1nc2sccn2c(=O)c1S(=O)(=O)Nc1cc(C(F)(F)F)ccc1Cl`, the Potency is reported as “inactive”. For `CC(=O)N1CCCc2cc(S(=O)(=O)N3CCCC(C(=O)NCc4ccc(C)cc4)C3)ccc21` (stereo not drawn), the Potency was active: 23.1 µM. For `COc1ccc(/C=N/n2c(=S)n(C)c3ccccc32)cc1OC`, the Potency was “inactive”. In the case of `COc1cc(CN2CCCC(n3cc(C(=O)N4CCCC4)nn3)C2)cc(OC)c1` (stereo not drawn), the Potency is reported as “inactive”. With `O=C(Nc1cccc(S(=O)(=O)NCc2ccco2)c1)c1ccc(Cl)cc1` the Potency was inconclusive: 20.6 µM [inhibitor, partial curve]. With `CCOc1ccc(NCc2nc3ccccc3n2CCOc2ccc(C)cc2)cc1` the Potency was active: 8.2 µM. With `COC(=O)c1cc(=O)n(Cc2ccc3c(c2)OCO3)c(=Nc2ccccc2)s1` the Potency was inconclusive: 29.1 µM [inhibitor, single point]. In the case of `CCOc1ccc(NC(=O)CSc2nc3ccsc3c(=O)n2CCCCCC(=O)O)cc1`, the Potency is reported as “inactive and inconclusive: 25.9 µM [inhibitor, single point]”. In the case of `COc1ccc(-c2cn3cc(C)ccc3n2)cc1Br`, the Potency is reported as inconclusive: 13 µM [inhibitor, partial curve]. With `Brc1nc(Br)n(Cc2ccccc2)n1` the Potency was “inactive”. With `CCNC(=O)C1(C)CCCN(Cc2cccc(Oc3ccccc3)c2)C1` (stereo not drawn) the Potency was active: 20.6 µM. With `C[C@@]12C(=O)N(c3ccc(C(F)(F)F)cc3)C(=O)N1[C@@H]1c3ccccc3OC[C@@H]1[C@H]2c1ccccc1` the Potency was active: 10.3 µM. With `CCNc1ncc2nc(-c3ccc(Cl)cc3)c(=O)n(C)c2n1` the Potency was “inactive”. With `CC(C)CC(NC(=O)OCC1c2ccccc2-c2ccccc21)C(=O)O` (stereo not drawn) the Potency was “inactive”. For `O=C(CSc1nc2c(c(=O)[nH]1)CN(Cc1ccc3c(c1)OCO3)CC2)Nc1ccccc1Cl`, the Potency was inconclusive: 16.4 µM [inhibitor, single point]. In the case of `Nc1ccc(C(=O)Oc2ccccc2)c(O)c1`, the Potency is reported as inconclusive: 29.9 µM [inhibitor, single point]. In the case of `COc1cccc(Nc2ncc3nc(-c4ccc(F)cc4)c(=O)n(C[C@H]4CCCO4)c3n2)c1`, the Potency is reported as “inactive”. In the case of `CC(=O)NCCC(=O)Nc1cc(S(=O)(=O)N2CCOCC2)ccc1N1CCCC1`, the Potency is reported as “inactive”. For `COc1cccc(Cn2c(CNS(=O)(=O)c3ccc(Cl)s3)nc3cccnc32)c1`, the Potency was inconclusive: 20.6 µM [inhibitor, single point]. With `CC1CC(=O)Nc2ccccc2N1S(=O)(=O)c1ccccc1` (stereo not drawn) the Potency was inconclusive: 29.1 µM [inhibitor, single point]. For `Cc1ccccc1C1(CC(=O)N2CCCCC2C)CC(=O)N(Cc2cccnc2)C1=O` (stereo not drawn), the Potency was inconclusive: 10.3 µM [inhibitor, partial curve, poor fit]. In the case of `CNNCc1ccc(C(=O)NC(C)C)cc1`, the Potency is reported as inconclusive: 16.4 µM [inhibitor, single point]. With `CCc1nn2c(=O)c(S(=O)(=O)Nc3ccc(C(C)C)cc3)c(C)nc2s1` the Potency was active: 23.1 µM and active: 16.4 µM. With `Cc1cc(C)cc(N(C(=O)Cc2cccs2)C(C(=O)NC2CCCC2)c2ccc(C)o2)c1` (stereo not drawn) the Potency was inconclusive: 23.1 µM [inhibitor, single point]. In the case of `CCOc1ccc(S(=O)(=O)N2CCCC(C(=O)NCc3ccncc3)C2)cc1Cl` (stereo not drawn), the Potency is reported as inconclusive: 18.4 µM [inhibitor, single point]. With `CN(C)S(=O)(=O)N1CCCC(C(=O)c2ccc(C(F)(F)F)cc2)C1` (stereo not drawn) the Potency was inconclusive: 18.4 µM [inhibitor, single point]. In the case of `COc1cc(OC)c(/C=C/c2cc3c4ccccc4ccc3[n+](C)c2)c(OC)c1`, the Potency is reported as inconclusive: 15.8 µM [inhibitor, single point]. With `Cc1cc(NCc2ccco2)nc2cc(O)ccc12` the Potency was inconclusive: 20.6 µM [inhibitor, single point]. For `CCN1C(=O)[C@@H]2[C@H](C1=O)[C@@H]1CC(C(=O)OC)=C[C@@H](C(=O)OC)C3C1=C(C(=O)C3(CC)CC)[C@@H]2C` (stereo partly drawn), the Potency was inconclusive: 16.4 µM [inhibitor, single point]. In the case of `COc1ccc(OCC(=O)Nc2cccc(OC)c2)cc1`, the Potency is reported as “inactive”. For `Cc1cc(C)c(NC(=O)c2sc3nc4c(cc3c2N)C(=O)CC(C)(C)C4)c(C)c1`, the Potency was active: 18.4 µM. In the case of `Cc1ccc(S(=O)(=O)c2nc(-c3ccccc3Cl)oc2NCCCN2CCOCC2)cc1`, the Potency is reported as active: 25.9 µM. With `CC(C)C[C@H]1CN([C@@H](Cc2ccc(O)cc2)CN2CCC[C@H]2CN2C(=O)C(=O)NC[C@@H]2Cc2ccccc2)C(=O)C(=O)N1CCc1ccccc1` the Potency was “inactive”. In the case of `OC[C@@H]1CN(Cc2ccncc2)C[C@H](n2cnc3c(NCc4ccncc4)ncnc32)O1`, the Potency is reported as “inactive”. For `CC(NC(=O)c1ccc(Cl)c(Cl)c1)c1ccc(-c2ccccc2)cc1` (stereo not drawn), the Potency was inconclusive: 20.6 µM [inhibitor, single point]. For `Cc1cc(C)c2c(c1)/C(=C/C(=O)c1ccc(Br)s1)C(=O)N2`, the Potency was active: 3.66 µM. With `CC(C)C(NC(=O)c1c(F)cccc1F)C(=O)NCc1ccncc1` (stereo not drawn) the Potency was “inactive”. In the case of `COc1ccccc1CNCC(O)(c1ccc(F)cc1)c1ccc(F)cc1`, the Potency is reported as active: 13 µM. For `CCCCC1Cc2[nH]c(=S)[nH]c(=O)c2C(c2ccc3ccccc3c2)O1` (stereo not drawn), the Potency was inconclusive: 23.1 µM [inhibitor, single point]. For `CCCC1=NN2C(=N)/C(=C\c3ccc(SCc4ccco4)o3)C(=O)N=C2S1`, the Potency was inconclusive: 14.6 µM [inhibitor, partial curve, poor fit]. For `O=C1CN(S(=O)(=O)c2ccc(F)cc2)CCN1`, the Potency was “inactive”. In the case of `O=[N+]([O-])c1ccccc1S(=O)(=O)NC1CCCC1`, the Potency is reported as “inactive”. For `CCOC(=O)C(=NCC1CCCO1)NNc1cc(Cl)ccc1Cl` (stereo not drawn), the Potency was “inactive”. For `COc1ccc(S(=O)(=O)N2CCCCCC2)cc1NC(=O)CCCOc1ccccc1`, the Potency was inconclusive: 29.1 µM [inhibitor, single point]. For `O=C(CCC(=O)CCN1CCCCC1)CCN1CCCCC1`, the Potency was active: 20.6 µM. In the case of `CS(=O)(=O)N1CCC2(CCCN(C(=O)Nc3cccc(C#N)c3)C2)CC1`, the Potency is reported as “inactive”. With `CN1C(c2ccc(F)cc2)=CS/C1=C(\C#N)c1nnc2n1-c1ccccc1SC2` the Potency was “inactive”. For `COc1ccc(C(=O)N/N=C/c2sc(=O)n(Cc3cccc(C(=O)O)c3)c2Cl)cc1`, the Potency was “inactive”. With `CCCn1c(N)c(C(=O)COC(=O)CCS(=O)(=O)c2ccc(C)cc2)c(=O)[nH]c1=O` the Potency was “inactive”. With `COc1cccc(CNC(=O)c2nc(Cn3nc(C)c(Br)c3C)no2)c1` the Potency was inconclusive: 11.6 µM [inhibitor, partial curve]. With `Cc1ccc2oc(C(=O)N(Cc3sccc3C)C3CCS(=O)(=O)C3)c(C)c2c1` (stereo not drawn) the Potency was active: 5.17 µM. With `Brc1ccc(-c2ccc(/C=N/Nc3nncc(-c4ccccc4)n3)o2)cc1` the Potency was active: 18.4 µM. In the case of `O=C(NCc1ccc(F)cc1)c1cc(S(=O)(=O)N2CCCCC2)ccc1Cl`, the Potency is reported as “inactive”. For `COc1ccccc1N1CCN(C(=O)CSc2ncnc3scc(-c4ccccc4)c23)CC1`, the Potency was active: 16.4 µM. With `COc1ccccc1CNC(=O)C(=O)NCC(c1cccs1)S(=O)(=O)c1cccs1` (stereo not drawn) the Potency was inconclusive: 25.9 µM [inhibitor, single point]. With `Cc1cnc(SCc2ccccn2)nc1C1CCCN(C(=O)c2ccc3c(c2)OCCO3)C1` (stereo not drawn) the Potency was “inactive”.
